PubChem BioAssay AID463173 (ICCB-Longwood Screening Facility, Harvard Medical School, 2010)
In all, about 52,000 compounds went through this assay and about 4,300 (8.3%) were called active. No stated cut-off is given here; in the data, active means survival mostly below about 52% (no sharp cut-off); inactive means mostly above about 56%. The list shows a part of the results.

Test system: DeltatarO mutant
Test: growth inhibition of S. aureus wild type versus tarO mutant, primary screen, teichoic acid synthesis inhibitors, RN4220, OD600 (AID 463173)
Conditions: OD600, 18 h, active compounds read low, screened at 18.75 µg/mL (by protocol)

Row | SMILES | survival
1 | CCc1ccccc1NC(=O)c1ncoc1-c1ccco1 | inactive: 80%
2 | COc1ccc(-c2c(C)nn3c(-c4ccccc4)cc(-c4ccccc4)nc23)cc1 | inactive: 115%
3 | Cc1ccc(NC(=O)CSc2nc3nccnc3c(=O)n2CCc2c[nH]c3ccccc23)c(C)c1 | active: 45%
4 | Cc1cc(C)c2c(n1)SCC(=O)N2CC(=O)Nc1cccc(C)c1C | inactive: 97%
5 | COc1cccc(Cn2c(=O)n(CC3CCC(C(=O)N4CCOCC4)CC3)c(=O)c3sccc32)c1 (configuration not stated) | inactive: 124%
6 | CCOc1ccc(NC(=O)c2oc3ccccc3c2NC(=O)Cc2cccs2)cc1 | inactive: 82%
7 | CCN1CCN(C(=O)c2ccc3c(c2)N(Cc2ccc(Cl)cc2)C(=O)c2ccccc2S3=O)CC1 (configuration not stated) | inactive: 72%
8 | CCc1ccc2c(c1)c(=O)c(C(=O)c1ccccc1)cn2CC(=O)Nc1ccc(C)c(Cl)c1 | inactive: 68%
9 | O=C(NC1CCCCC1)C(c1ccco1)N(Cc1cccs1)C(=O)C(F)(F)F (configuration not stated) | inactive: 88%
10 | CCc1ccc2c(c1)c(=O)c(C(=O)c1ccc(C)cc1)cn2CC(=O)Nc1ccccc1C | inactive: 65%
11 | Cc1ccc(C(=O)Nc2nnc(S(=O)(=O)N3CCCc4ccccc43)s2)cc1 | active: 39%
12 | CCOc1ccc(S(=O)(=O)NCCc2csc3nc(-c4cccc(C)c4)nn23)cc1 | inactive: 78%
13 | Fc1ccc(Nc2c(-c3c[nH]c4ccccc34)nc3ccccn23)cc1 | inactive: 70%
14 | COc1ccc(CCNC(=O)c2ccc(CSCc3ccc(C)cc3)o2)cc1OC | inactive: 73%
15 | COc1ccc(C(=O)Nc2ccc3nc(N4CCCCC4)cc(C)c3c2)cc1OC | inactive: 55%
16 | COCCCNC(=O)C1CCN(C(=O)c2cc3sccc3n2Cc2ccc(Cl)cc2)CC1 | inactive: 59%
17 | Cc1ccc(C)c(N2CCN(C(=O)c3cccn4c(=O)c5ccccc5nc34)CC2)c1 | inactive: 82%
18 | CCCCOC(=O)c1ccc(NC(=O)c2cc(=O)c3ccccc3o2)cc1 | inactive: 57%
19 | Cc1cc(SCC(=O)Nc2ccc(C(F)(F)F)cc2)nc(=O)[nH]1 | inactive: 75%

Row | SMILES | survival
20 | CCc1ccc(C(=O)c2cn(CC(=O)Nc3ccc(OC)cc3)c3cc4c(cc3c2=O)OCCO4)cc1 | inactive: 92%
21 | C=CCN1C(=O)C(C(=O)O)C(=O)c2ccccc21 (configuration not stated) | inactive: 78%
22 | Cc1ccc(OCCSc2nc3ccccc3n2CC(=O)NC(C)C)cc1 | inactive: 52%
23 | O=C1CSC2(C(=O)N(Cc3c(F)cccc3Cl)c3ccccc32)N1c1ccc(F)c(F)c1 (configuration not stated) | inactive: 78%
24 | O=C(CSc1ncc2c(n1)-c1cc(Cl)ccc1N(Cc1ccccc1)S2(=O)=O)NCc1ccccc1 | inactive: 89%
25 | CCn1nnc(NC(=O)C(C)(c2ccccc2)c2ccccc2)n1 | inactive: 70%
26 | Cc1ccc(-c2nnn3c2nc(N2CCC(C)CC2)c2ccccc23)cc1 | active: -6%
27 | Cc1cnc2c(c1)N1CCC2CC1 | inactive: 100%
28 | COc1cc(NC(=O)c2cc3cc4ccc(OC)c(Cl)c4nc3s2)cc(OC)c1 | inactive: 98%
29 | Cc1ccc(-c2cc3ncc4c(n3n2)-c2ccccc2OC4)cc1 | inactive: 68%
30 | CCC(Sc1ccc2nnc(CCNS(=O)(=O)c3ccc(OC)cc3)n2n1)C(=O)OC (configuration not stated) | inactive: 98%
31 | COc1ccc(-c2nc3c4ccccc4n(CC(=O)Nc4ccc(C(C)=O)cc4)c(=O)n3n2)cc1 | inactive: 71%
32 | Cc1cc(C)cc(NC(=O)CSc2nc3c(cnn3-c3ccc(F)cc3)c(=O)[nH]2)c1 | inactive: 68%
33 | O=C(OCc1ccc(Cl)cc1Cl)c1ccncc1 | inactive: 98%
34 | C=CCN1C(=O)C2(C(C#N)=C(N)Oc3n[nH]c(COC)c32)c2ccccc21 (configuration not stated) | inactive: 109%
35 | Cc1nc2ccc(S(=O)(=O)NCC(=O)Nc3ccc(C)c(Cl)c3)cc2s1 | inactive: 63%
36 | O=S(=O)(c1ccc(Cl)cc1)N1CCC(c2ccncc2)CC1 | inactive: 73%
37 | O=C(Nc1nnc(S(=O)(=O)N2CCOCC2)s1)c1cccc(Br)c1 | active: 42%
38 | Cc1nc2c(C(=O)NCCc3ccccc3)c[nH]n2c(=O)c1Cc1ccccc1F | active: -13%

Row | SMILES | survival
39 | COc1cccc(C(=O)Nc2ccc(C(=O)OCc3cc(=O)n4cc(C)sc4n3)cc2)c1 | inactive: 66%
40 | NC(=O)Cn1c(-c2nonc2N)nc2ccccc21 | active: 62%
41 | COc1cc(NS(=O)(=O)c2cc3c(cc2C)n(C)c(=O)c(=O)n3C)cc(OC)c1 | inactive: 68%
42 | Cc1nc2sccn2c(=O)c1S(=O)(=O)N1CCN(c2ccc(F)cc2)CC1 | inactive: 74%
43 | COc1ccc(CCNC(=O)CSc2nc3ccccc3nc2Cc2ccc(Cl)cc2)cc1OC | active: 37%
44 | Cc1cccc(NS(=O)(=O)c2ccc(Cl)c(C(=O)Nc3ccccc3C)c2)c1 | inactive: 71%
45 | CC(C)Cn1c(-c2ccc(S(=O)(=O)N3CCCC3)cc2)csc1=Nc1ccccc1 | inactive: 58%
46 | CCCN(Cc1cccs1)C(=O)Nc1ccc(Br)c(C)c1 | inactive: 57%
47 | Cc1ccc(-n2c(=O)c3c(cnn3C)n(CC(=O)Nc3cc(C)ccc3C)c2=O)cc1 | inactive: 85%
48 | Cc1ccc(C(=O)c2cn(Cc3cccc(F)c3)c3nc(C)ccc3c2=O)cc1 | inactive: 78%
49 | Cc1ccc(NC(=O)Cn2cc(C(=O)c3cccs3)c3ccccc32)cc1C | inactive: 74%
50 | COc1ccc(C(=O)NCc2ccc3c(c2)CCN3C(=O)c2cccc(C)c2)cc1OC | inactive: 119%
51 | CCn1c(SCC(=O)N(C2CCCCC2)C2CCCCC2)nnc1C(C)C | inactive: 103%
52 | O=C(CCn1cccn1)Nc1cccc(C(F)(F)F)c1 | inactive: 70%
53 | Cc1oc2ncnc(N3CCOCC3)c2c1C(=O)NCc1ccccc1 | inactive: 91%
54 | CN1CCN(Cc2c(O)ccc3cc(-c4ccccc4)c(=O)oc23)CC1 | inactive: 105%
55 | CCOc1ccc(-c2cc(C(=O)NCc3ccc(OC)cc3)c3c(-c4ccc(F)cc4)[nH]nc3n2)cc1 | inactive: 77%
56 | O=C(NCc1ccco1)c1cc(-c2ccccc2)on1 | inactive: 85%
57 | CCCOc1ccc(NC(=O)CC2C(=O)N(c3cccc(C)c3)C(=O)N2CCc2ccncc2)cc1 (configuration not stated) | inactive: 107%
